US20040258668A1 (priority 2001, published 2004)

System: LLC-MK2 cells infected with SeV18+SEAP/ΔF-GFP
Experiment: GFP expression and cell damage by fluorescence microscopy
Conditions: four and six days after aspirin addition, 0.625-5 mM
Protocol: GFP expression level and cell damage were also periodically observed using fluorescence microscopy.
Fluorescence microscopy pictures taken four and six days after aspirin addition (six and eight days after SeV infection, respectively) are shown in FIG. 3. […] The effect of adding 5 mM aspirin was significant.

CC(=O)Oc1ccccc1C(=O)O [aspirin, acetylsalicylic acid]
GFP expression and cell damage: concentration-dependent decreases in GFP expression and in cell damage
